Reference: publication PMC6919601, “Identification of Plasmodium dipeptidyl aminopeptidase allosteric inhibitors by high throughput screening” (PLoS ONE, 2019)
Among all 110,000 compounds or so, about 230 (0.21%) showed an effect of 50% or more. This is one part of the list.

What follows are compounds tested against DPAP1 (Plasmodium falciparum, UniProt Q8IIJ9) (assay: primary screen, percent inhibition; read by cleavage of a fluorogenic dipeptide substrate; higher = more effect of the substance).
Chain of DPAP1 (Q8IIJ9 whole entry, looked up): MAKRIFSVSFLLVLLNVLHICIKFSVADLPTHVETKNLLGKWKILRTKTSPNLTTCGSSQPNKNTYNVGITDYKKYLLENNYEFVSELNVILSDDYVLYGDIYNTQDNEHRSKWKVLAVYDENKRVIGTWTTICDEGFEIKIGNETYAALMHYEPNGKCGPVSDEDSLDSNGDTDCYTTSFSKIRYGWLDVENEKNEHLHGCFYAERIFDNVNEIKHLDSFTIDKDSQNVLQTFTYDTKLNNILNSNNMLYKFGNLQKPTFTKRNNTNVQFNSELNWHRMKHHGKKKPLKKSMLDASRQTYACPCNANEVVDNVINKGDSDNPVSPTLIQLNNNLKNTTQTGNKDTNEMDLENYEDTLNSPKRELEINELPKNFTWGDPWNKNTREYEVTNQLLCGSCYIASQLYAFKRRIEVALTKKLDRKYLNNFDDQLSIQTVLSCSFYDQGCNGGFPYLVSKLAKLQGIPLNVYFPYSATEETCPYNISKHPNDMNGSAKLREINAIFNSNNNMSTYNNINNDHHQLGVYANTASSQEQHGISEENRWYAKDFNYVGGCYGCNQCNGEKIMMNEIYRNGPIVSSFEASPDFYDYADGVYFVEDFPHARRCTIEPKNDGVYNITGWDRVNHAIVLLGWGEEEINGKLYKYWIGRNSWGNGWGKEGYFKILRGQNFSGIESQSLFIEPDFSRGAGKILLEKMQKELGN
Set-up: species or system P. falciparum D10 trophozoite lysates; single well
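Also: 30 min substrate incubation versus DMSO and 10 µM JCP410 controls.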

SMILES	% Inhibition @ 10 uM
Fc1ccc(-c2nnc(-c3ccc(F)cc3)o2)cc1	20.7%
O=C(CCN1C(=O)c2ccccc2C1=O)N1CCN(c2ccccn2)CC1	-2.53%
CCC(CC)NCc1ccc2c(c1)c1ccccc1n2CC	-3.74%
CCOc1ccccc1CNC(=O)c1cc2sc(C)cc2n1C	-4.85%
CC1=C(C(=O)OCC2CCCO2)C(c2cccc(O)c2)NC(=O)N1 (stereo not drawn)	4.35%
COc1ccc(C2CC(=O)N3C(=C2C#N)SCC3(O)c2ccccc2)cc1 (stereo not drawn)	0.66%
CCn1c(C)c(C)c2cc(C(=O)NCc3ccc(C)cc3)ccc21	-2.83%
Cc1cc(C)cc(C(=O)N[C@@H](Cc2cc(I)c(O)c(I)c2)C(=O)NCC#N)c1	-3.04%
CN1CCN(CCCn2cnc3c2c(=O)n(C)c(=O)n3C)CC1	-5.26%
COCCn1c(N2CCOCC2)nc2c1c(=O)n(C)c(=O)n2C	-4.67%
O=S(=O)(c1ccc2c(c1)Cc1ccccc1-2)N1CCCCC1	-1.41%
O=[N+]([O-])c1ccc(Oc2ccc(S(=O)(=O)NCc3ccccc3)cc2)cc1	-4.35%
CC(C(O)C12CC3CC(CC(C3)C1)C2)N(C)C (stereo not drawn)	3.05%
C(#Cc1csc2ccccc12)c1ccccc1	-4.91%
CCCCCC(=O)Nc1ccc(NC(C)=O)cc1	2.01%
O=C1S/C(=C\c2ccc(F)cc2)C(=O)N1CN1CCCC1	0.331%
O=C(O)CCCCn1c(SCc2ccccc2Cl)nc2ccsc2c1=O	8.15%
CCc1ccc(C2CC(=O)NC(SCC(=O)Nc3ccccc3)=C2C#N)cc1 (stereo not drawn)	-2.54%
CCC(C)NC(=O)C1CCN(S(=O)(=O)c2ccc3nc(O)ccc3c2)CC1 (stereo not drawn)	2.51%
COc1ccccc1/N=c1\scc(-c2ccc(S(=O)(=O)N3CCOCC3)cc2)n1CC(C)C	8.08%
COc1ccc2nc(N3CCOCC3)cc(C)c2c1	-3.48%

SMILES	% Inhibition @ 10 uM
Nc1cccc(NC(=O)c2cc(F)c(F)cc2Cl)c1	-1.88%
CCN(Cc1nc(-c2ccc(OC)cc2)no1)S(=O)(=O)c1c(C)cc(C)cc1C	-2.71%
CN1CCN(C(=O)c2ccc3c(c2)sc2nc(-c4ccc(F)cc4)cn23)CC1	18.7%
CC1Cc2nc(SCC(N)=O)n(CCc3ccccc3)c(=O)c2S1 (stereo not drawn)	-3.51%
C/C=C(\C)CN1CCN(CCO)CC1	2.99%
C=CCN1C(=O)S/C(=C/c2ccc(OCc3ccc(C(=O)O)cc3)cc2)C1=O	-1.95%
O=C(c1ccco1)N1N=C(c2cccs2)CC1c1ccco1 (stereo not drawn)	1.05%
COC(=O)C1=C(C)N=C(C)/C(=C(/O)OC)C1c1ccc(-c2cccc(Cl)c2Cl)o1 (stereo not drawn)	-5.63%
COc1ccc(CN2CCN(C/C=C/c3ccccc3)CC2)c(OC)c1OC	-2.91%
COc1ccc2ccccc2c1CN(CCCN(C)C)CCCN(C)C	0.871%
N=C(N)n1nc2ccc3nn(C(=N)N)nc3c2n1	1.42%
COc1ccc(Cc2nc3c4cnn(Cc5ccccc5)c4ncn3n2)cc1OC	-4.64%
O=C(c1cccs1)N1CCN(c2ccc(F)cc2)CC1	0.135%
CCOCCn1c(CN2CCN(C(=O)c3ccco3)CC2)nc2c1c(=O)n(C)c(=O)n2C	0.317%
N#Cc1c(O)nc(SCC(=O)N2CCN(C34CC5CC(CC(C5)C3)C4)CC2)nc1-c1ccccc1	4.57%
CC(C)N1CCN(c2ccc(S(=O)(=O)N3CCOCC3)cn2)CC1	-8.92%
CCN(CC)S(=O)(=O)c1ccc(C(=O)NCCSc2c(C)[nH]c3ccccc23)cc1	-1.73%
N#CCNC(=O)C(CCc1ccc(F)cc1Cl)NC(=O)OCc1ccccc1 (stereo not drawn)	2.87%
COc1ccc(C2(CN)CCOCC2)cc1OC	3.44%
O=C(Nc1cccc2c1CCCC2)c1ccc(Cl)cc1Cl	-4.15%
CCC(C)NC(=O)CCn1c(-c2ccc(F)cc2)cc(C(C)=O)c1C (stereo not drawn)	4.61%

SMILES	% Inhibition @ 10 uM
O=C(CCC(=O)Nc1sc2c(c1C(=O)O)CCCC2)Nc1sc2c(c1C(=O)O)CCCC2	5.92%
COc1ccc(CN2CCN(Cc3ccccc3OC)CC2)c(OC)c1	-2.17%
O=C(Nc1cnn(Cc2ccc(Cl)cc2Cl)c1)c1cc(-c2ccc(O)cc2)on1	-2.65%
CC(=O)N1N=C(c2ccc(C)cc2)CC1c1ccccc1F (stereo not drawn)	-1.1%
CC(C)Cn1c(=O)c2sccc2n2c(CCCC(=O)NC3CCC(C)CC3)nnc12 (stereo not drawn)	-3.01%
COc1cc(/C=C/c2nc(C#N)c(NCCN(C)C)o2)cc(OC)c1OC	2.54%
Cc1cccc(OCC(=O)Nc2nonc2NC(=O)COc2cccc(C)c2)c1	0.231%
COc1cccc(-c2nn3c(C4COc5ccccc5O4)nnc3s2)c1 (stereo not drawn)	1.25%
CC(Oc1ccc(Cl)cc1Cl)C(=O)Nc1cccc(F)c1 (stereo not drawn)	-2.03%
c1coc(CN2CCc3c([nH]c4ccccc34)C2)c1	2.23%
C#CCOc1ccc(/C=C2\NC(=O)N(Cc3ccc(Cl)cc3)C2=O)cc1OC	-1.25%
COc1ccc(-c2noc(N(C)CC(=O)NCCC3=CCCCC3)n2)cc1	-0.522%
Cn1nc(-c2ccc(Cl)cc2)c2cc(C(=O)N3CCN(c4ccccn4)CC3)sc21	-3.09%
Cc1ccc(CNC(=O)CCCn2c(=O)c3sccc3n(Cc3ccccc3C#N)c2=O)cc1	-5.09%
CS(=O)(=O)N(CC(=O)N1CCN(c2ccccc2)CC1)c1ccc(Cl)c(Cl)c1	-1.82%
Cc1nc2nc(SCC(=O)NCC3CCCO3)nn2c(C)c1Cc1c(F)cccc1Cl (stereo not drawn)	17.4%
CCc1ccc(S(=O)(=O)Nc2ccc(-c3csc(C)n3)cc2)cc1	-3.09%
Cc1c(Cl)c(C(=O)Nc2cccc(S(=O)(=O)N3CCOCC3)c2)nn1C	-6.69%
CCN(CC)CCN(C)Cc1cccc(Cl)c1Cl	5.03%
CCCN1CC2=C(OC(N)=C(C#N)C2c2ccccc2)/C(=C\c2ccccc2)C1 (stereo not drawn)	-4.03%
C/C(O)=C\C(C)=N\C(C)C(=O)O (stereo not drawn)	0.736%
